# Assay results: paper PMC4336329 (PLoS ONE, 2015)
# Hit rate of the full screen: of about 310,000 compounds, about 14,000 (4.5%) showed an effect of 50% or more. Effects have a minus sign here. Some of the results follow.
# Biological target: human ether-à-go-go-related gene (hERG) potassium channel (human, UniProt Q12809)
# Test: primary screen, population patch clamp on CHO cells stably expressing hERG
# 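Further: peak tail current of the secondary pulse compared with the same well before compound.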
# Chain of human ether-à-go-go-related gene (hERG) potassium channel (Q12809 whole entry, looked up): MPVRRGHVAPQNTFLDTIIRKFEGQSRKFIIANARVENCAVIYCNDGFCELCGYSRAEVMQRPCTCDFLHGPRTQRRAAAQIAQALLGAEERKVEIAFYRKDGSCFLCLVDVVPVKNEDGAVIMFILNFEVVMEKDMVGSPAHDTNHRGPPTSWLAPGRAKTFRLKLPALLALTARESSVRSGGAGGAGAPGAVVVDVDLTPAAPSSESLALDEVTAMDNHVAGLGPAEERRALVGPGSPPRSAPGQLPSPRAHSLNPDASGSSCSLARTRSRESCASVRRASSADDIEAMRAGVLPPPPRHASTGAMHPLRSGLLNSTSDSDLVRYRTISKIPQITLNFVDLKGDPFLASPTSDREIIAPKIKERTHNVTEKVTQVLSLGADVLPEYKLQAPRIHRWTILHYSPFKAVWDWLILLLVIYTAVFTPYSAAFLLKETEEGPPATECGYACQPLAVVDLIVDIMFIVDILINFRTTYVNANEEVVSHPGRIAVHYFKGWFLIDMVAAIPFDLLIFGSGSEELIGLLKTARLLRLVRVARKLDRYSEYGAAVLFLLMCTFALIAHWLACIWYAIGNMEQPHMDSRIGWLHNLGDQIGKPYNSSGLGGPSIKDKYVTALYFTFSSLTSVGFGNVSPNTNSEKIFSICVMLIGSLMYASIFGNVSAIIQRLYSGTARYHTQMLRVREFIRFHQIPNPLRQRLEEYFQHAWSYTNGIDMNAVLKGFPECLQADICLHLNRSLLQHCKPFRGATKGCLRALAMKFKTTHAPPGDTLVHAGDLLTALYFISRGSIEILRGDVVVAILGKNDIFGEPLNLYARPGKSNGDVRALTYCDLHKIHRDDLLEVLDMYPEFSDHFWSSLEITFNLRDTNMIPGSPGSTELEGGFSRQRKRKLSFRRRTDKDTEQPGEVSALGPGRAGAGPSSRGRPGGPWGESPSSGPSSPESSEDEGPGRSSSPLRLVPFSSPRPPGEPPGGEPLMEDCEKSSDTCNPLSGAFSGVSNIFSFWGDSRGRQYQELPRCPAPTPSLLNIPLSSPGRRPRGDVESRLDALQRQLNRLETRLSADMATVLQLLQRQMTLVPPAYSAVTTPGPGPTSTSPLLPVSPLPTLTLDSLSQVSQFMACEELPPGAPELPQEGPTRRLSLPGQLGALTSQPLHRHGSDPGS
row,SMILES,"hERG current change (%, negative = inhibition) at 10uM [%]"
1,CSc1nsc(SC)c1C(=O)OCC(F)(F)F,12.1
2,O=C(O)C1CC=CCC1C(=O)Nc1ccccc1C(=O)N1CCN(c2ccc(Cl)cc2)CC1 (centres unmarked),4.97
3,Cc1ccc(S(=O)(=O)/N=C(\N)Nc2nc(C)c3cc(C)ccc3n2)cc1,-6.12
4,COc1ccc(Oc2c(C(F)(F)F)oc3cc(OCC(=O)O)ccc3c2=O)cc1,22
5,CN(Cc1ccccc1)C(=O)COC(=O)CCN1C(=O)C2CC=CCC2C1=O (centres unmarked),-6.13
6,O=C(O)c1ccccc1C(=O)NCCc1c(C(=O)O)[nH]c2ccc(F)cc12,10.2
7,COc1ccc(CCNC(=O)c2cc(S(=O)(=O)N3CCOCC3)ccc2N2CCCC2)cc1OC,-2.29
8,CCCOc1ccc(NC(=O)C2OC3OC(C)(C)OC3C3OC(C)(C)OC23)cc1 (centres unmarked),14.9
9,CC1Cc2ccccc2N1C(=O)C1CCCN1S(=O)(=O)c1ccc(Cl)cc1 (centres unmarked),3.04
10,CCOC(=O)c1cnc(SCc2cccc(C)c2)nc1N,-21.5
11,O=C(c1ccc(F)cc1F)N1CCC(N2CCC(C(=O)N3CCOCC3)CC2)CC1,13.2
12,Cc1ccc(N(Cc2cc3ccc(C)cc3[nH]c2=O)S(=O)(=O)c2ccccc2)cc1,7.5
13,CCOP(=S)(OCC)Oc1cc(C)oc(=O)c1,10.9
14,O=C(NCC1CCCO1)c1ccc2c(c1)C(=O)N(C1CCCCC1)C2=O (centres unmarked),-21.2
15,O=C(O)c1ccc(N/N=C/c2ccnc3ccccc23)cc1,18.5
16,CN(C)c1ccc(C(=O)NCc2ccc3c(c2)CCO3)cc1,-4.82
17,CCOc1ccc(-c2c(C(=O)N/N=C/c3ccc(OC)cc3)nnn2-c2nonc2N)cc1,-3.47
18,CCOC(=O)C1CCN(C(=O)CNC(=O)c2nn(-c3ccc(OC)c(OC)c3)c(=O)c3ccccc23)CC1,-2.02
19,CCn1nc(NC(=O)c2ccncc2)c2cc3ccccc3nc21,-12
20,C=CCn1c(N)c(C(=O)Nc2ccc(C)cc2)sc1=S,10.7
21,Cc1cc(=O)n2c3ccccc3n(CC(O)CN3CCN(Cc4ccccc4)CC3)c2c1C#N (centres unmarked),-62.8
22,CC(C)[C@H](NC(=O)OC(C)(C)C)c1nnc(S(=O)(=O)Cc2c(F)cccc2Cl)o1,-6.28
23,O=C1C=C(c2ccc3c(c2)oc2ccccc23)C[C@@H](c2ccc(Cl)cc2)C1,16.3
